Experimental data published in paper PMC12136788.
The list shows a part of the results.

T1: UNK ZnF1-3 (human, UniProt Q9C0B0 31-174)
T1 sequence: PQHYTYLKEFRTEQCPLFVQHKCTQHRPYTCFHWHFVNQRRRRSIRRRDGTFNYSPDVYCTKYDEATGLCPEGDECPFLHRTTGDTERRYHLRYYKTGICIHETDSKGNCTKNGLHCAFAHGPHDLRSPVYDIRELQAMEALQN

B1: chr1:145439819:145439820:+_ENSG00000117289_ENST00000369317|hu_hu|motif|central (ssRNA)
RNA: GGGAGUUCUACAGUCCGACGAUCUUUCUUUGUCUCUUGAGUUGGCUGGCUCGGGCGGUCAAGAAAAGCCUUCACCCAGUAGUCGGCACACCCAUAUUUUCCUUUGAAGGAUGUUCCCAGAGGCCCCUGAGGAAGCUCAAAGCCCAACAGAGGAUUGAGCAUCA
B2: chr4:17845017:17845018:+_ENSG00000109805_ENST00000514176|hu_mus|hu_hu_hu_mus_False|48_78 (ssRNA)
RNA: GGGAGUUCUACAGUCCGACGAUCGCUCUCUUAACUUGUAUCUUCAUUAAGGAACUCGCAAGGUUAAAGUUUACUUUUCUGUAGCGCGCGGUUUUGGGCUCGUCUGGGUAAUCUCAUCUUCAUUUCUGAUGGUGGUUCAUGAUCCAACAGAGGAUUGAGCAUCA
B3: chr4:11091628:11091629:+_ENSMUSG00000028211_ENSMUST00000029865|mus_mus|FALSE|FALSE (ssRNA)
RNA: GGGAGUUCUACAGUCCGACGAUCUUCUUUCUCACUGAAUUCUGGUUCUUGGCUGGAAGAAGUAGUGACUUCGCCUACAAACAUUUUAUUCAGUCUCUGAAACAUUGUUAAGGCAAGAUUGAGAUUUUGGCUAGAUAUCUUUAUCAACAGAGGAUUGAGCAUCA
B4: chr1:163115580:163115581:-_ENSG00000143248_ENST00000313961|hu_hu|FALSE|FALSE (ssRNA)
RNA: GGGAGUUCUACAGUCCGACGAUCUACAGUCACAUAGUUGCUUCACUUUCAAUAUUCUUAGGAAAUAACCAAAUAAAUGAGCUACAAAUAUGAGAAACUGAGAGUGUGUGAAUGAAAGAGAGCAACAGAAGGAGGAAAUACAAGCAACAGAGGAUUGAGCAUCA
B5: chr2:164332853:164332854:+_ENSMUSG00000017721_ENSMUST00000103101|mus_mus|FALSE|FALSE (ssRNA)
RNA: GGGAGUUCUACAGUCCGACGAUCAUAGCACACGGCCACCACCGUGCACGUAAGGCAGAUCACAUUGUAGGGCAUGCUGAAGUCCGGGGUGGGCAGGUUCACUAGCAAGGGCUCUGUGUAGAGUCGGACAAAGUAGCUGGAGCCCAACAGAGGAUUGAGCAUCA
B6: chr4:11166509:11166510:-_ENSMUSG00000040738_ENSMUST00000108319|mus_mus|motif|central (ssRNA)
RNA: GGGAGUUCUACAGUCCGACGAUCUUGAGAGUUAUUAUCAGAAGAAGGUACAAGAACAUCACACGCUUGACAAUAGCCAGCGGACCGCUUCUCAUCUAUGGUACAAUGAAGAGAUAAUGAACCUAUCUCUGCAAGUAGUUCUUUCAACAGAGGAUUGAGCAUCA
B7: chr14:28285125:28285126:+_ENSMUSG00000040651_ENSMUST00000022450|mus_mus|motif|central (ssRNA)
RNA: GGGAGUUCUACAGUCCGACGAUCCUCAGAAAGGCGAUUCAUCUUCUCUUGUGCUGAAAAGAUAGGUGUGGAAAUUGCACGGACAUAUGAAACAUUCUUCUCCUUCAAAAUCUCUUCUACCUUCCUAGAGAAAAGAUGGAACUCCAACAGAGGAUUGAGCAUCA
B8: chr5:37680062:37680063:+_ENSMUSG00000029121_ENSMUST00000031004|mus_hu|mus_mus_mus_hu_False|1_78 (ssRNA)
RNA: GGGAGUUCUACAGUCCGACGAUCUUUGGGUGUAGCUGGUACCUCGUACACAGGACCAUCGUACAUGCCCCUGGAAACCCCUUGCAAUCCAAAAACCUUAUUCCUGAUUUUGACGCGCUGGUACAGGUGCUCCGGGAAUGGCUUCAACAGAGGAUUGAGCAUCA
B9: chr19:53703180:53703181:+_ENSMUSG00000024974_ENSMUST00000025930|mus_hu|FALSE|FALSE (ssRNA)
RNA: GGGAGUUCUACAGUCCGACGAUCAUUUUGAACAUGCUGGUUUAUUCCUUUUCGACGGAAGUGGUCUAGCACUUUGUUUAUGCUGUCUAUUCCAUUUAAAAUGGCCUUUCCUGUUGCUGCUCUAAGAAGUUGUUGCUUCUUUUCCAACAGAGGAUUGAGCAUCA
B10: chr2:232320318:232320319:-_ENSG00000115053_ENST00000322723|hu_hu|hu_hu_hu_mus_True|18_58 (ssRNA)
RNA: GGGAGUUCUACAGUCCGACGAUCACUAUUAAAGUCUACAAAACCAAACCCUUUGGAAGAACCAGUUUCCCGAUCAGUAACUAUCCUUGCACGAACAGAGCCCUCAAAUGAUUCUUUUAAUGUCUCUUCAGUGGUAUCCUCAGACAACAGAGGAUUGAGCAUCA
B11: 39847440_39850530_3879_CDS_ENSG00000121892_ENST00000303538|human|control|control (ssRNA)
RNA: GGGAGUUCUACAGUCCGACGAUCUCCUGUUAACAGAAGUACUCUUGUCUCUUCUGAAAUAUAACUCUUAUCGUUACAGAAGUCCUUUUCAGGUUGUGUAAAAAAUUUCAUUGGGAGGACUGGGUCCUUUGGUGAAUCUGCAUUCAACAGAGGAUUGAGCAUCA
B12: chr9:95013113:95013114:-_ENSG00000196305_ENST00000443024|hu_hu|hu_hu_hu_mus_False|1_98 (ssRNA)
RNA: GGGAGUUCUACAGUCCGACGAUCCUCAGUCAGAAAGGGUGUGUAGGGGGCCAUCAGUCUGCACAGAGAAAGCAGGACACUGAACAGUGUCUCCAGAGCCAUGACACAGUCUUCCACCCCACUCUCACCCUUUAACCUUCUGCGCAACAGAGGAUUGAGCAUCA
B13: chr1:95368729:95368730:-_ENSG00000117519_ENST00000538964|hu_hu|FALSE|FALSE (ssRNA)
RNA: GGGAGUUCUACAGUCCGACGAUCCAACUGAGGCCAGUUCAGUGAGGACUCGUUGACCUUCUUCACUGAGCCUGGCUGUAGCUUGUUUAUAAGUUCGCAGAGGAUGAUGCCAUCCUUUAAGCCCAGCUGGAAGUUGGGGCCAAUCAACAGAGGAUUGAGCAUCA
B14: chr10:33190432:33190433:-_ENSG00000150093_ENST00000302278|hu_mus|hu_hu_hu_mus_True|1_58 (ssRNA)
RNA: GGGAGUUCUACAGUCCGACGAUCUACAUUUUCCAAACCUGCAUGUGAAUAAAACCCUGGCCACAGAGCCCCAAAACUACCUAACUGUGACUAAGAUGCUGCUGCUGUGAGCUUGGUGUUGCAAAAUCCGCCUGAGUCAGUACUCAACAGAGGAUUGAGCAUCA
B15: chr1:163115689:163115690:-_ENSG00000143248_ENST00000313961|hu_hu|motif|central (ssRNA)
RNA: GGGAGUUCUACAGUCCGACGAUCCAAUGUAAUCUUCUACUUAACAUUUCAGAAUUUUAUUAAUCCUUUAAAAAUCACCCGGUUUCUUUUGAGUUAAUAUCCUCAUCUCGAUUACCCUCAUACAUGGCUUAGUUUGAUUCUGUUCAACAGAGGAUUGAGCAUCA
B16: chr4:47484081:47484082:-_ENSMUSG00000039740_ENSMUST00000044148|mus_mus|motif|central (ssRNA)
RNA: GGGAGUUCUACAGUCCGACGAUCCCAUUACGCUCUGAAGUCAAAUCAAUUGACUGUGACAAUGGUAAGACCUACACGGCGGAAGCCAAUUAAGGCACUGGAUGAUCAAACCUUUAUAUAUAAAGGAACAAUAAUCCAGGAAAACAACAGAGGAUUGAGCAUCA
B17: chr1:58468927:58468928:-_ENSMUSG00000026034_ENSMUST00000148330|mus_mus|mus_mus_mus_hu_False|28_108 (ssRNA)
RNA: GGGAGUUCUACAGUCCGACGAUCAAUCUAUAAUUACGAUGUUCAUUACCUUAGCUAUGUACUUAAUGAACCAAAUUACCCAAACAAAAUAAACAUGGCAAUAUAAAAAGCUAUACAAUUUACAAAGCUGUACAAAAUAACUUACAACAGAGGAUUGAGCAUCA
B18: chr9:100410314:100410315:+_ENSG00000136937_ENST00000375147|hu_hu|FALSE|FALSE (ssRNA)
RNA: GGGAGUUCUACAGUCCGACGAUCGUGCCGUUCCUGCCAGCGAUCCUUUUUCAAUUUCUGAAUCUGGGCCCACAGGCAAUCUAAAUACUCUUCUUGUGGAUGUGGUUUAUCAGCAGUCCAUACCUGUAACAUGGGUACAUGAGUCAACAGAGGAUUGAGCAUCA
B19: chr14:103803487:103803488:+_ENSG00000100664_ENST00000558506|hu_mus|hu_hu_hu_mus_True|78_88 (ssRNA)
RNA: GGGAGUUCUACAGUCCGACGAUCGAGUUUAUGAUGUGUGUCAAGCAUGCCUCGAUAGCCACAGGCUUUACAAGAAUUACCUAUUGUUUGCUUCUUUGGAUUGACAUGCAGAUCUGUUUCAGGAUUCUCACACUCAGGACAGAGCAACAGAGGAUUGAGCAUCA
B20: chr16:5026692:5026693:-_ENSMUSG00000022536_ENSMUST00000115844|mus_mus|motif|central (ssRNA)
RNA: GGGAGUUCUACAGUCCGACGAUCACCCAUUUUUAGCAAGUUGGAGACGAUGCCACUUCCCAUUAAGCCAAGGCCCAAAAAUCCGGUCUUUUUGUCUGUGGGUGUAAUGCUGCCAUUCACAGCUGUGCUGUCUGCUGCCUGGAUCAACAGAGGAUUGAGCAUCA
B21: chr8:95500983:95500984:-_ENSG00000164944_ENST00000437199|hu_hu|hu_hu_hu_mus_True|28_48 (ssRNA)
RNA: GGGAGUUCUACAGUCCGACGAUCAGAACACAUCUAUCGAGUAAAGGACCGUACAUGACGGCCUCUACCACUGCCUCCACUAACAAAACUUUCCUCUGAGCCUCCACCUGCCGCUAUUGUACUAGCCCAGGACGGUCCCAGGCCCAACAGAGGAUUGAGCAUCA
B22: chr3:37053522:37053523:+_ENSG00000076242_ENST00000455445|hu_mus|FALSE|FALSE (ssRNA)
RNA: GGGAGUUCUACAGUCCGACGAUCAAAGAUGGAGCGAAUGUUGUCCACGGUUGUGGCAUUGGGCAGUGUUCUGACAUCAGAUACUGUCUCACCUUGUUUUUUAACUGAGAAACUAAUGCCUGAAUUGUGUAUUGAAUACCUGCCCAACAGAGGAUUGAGCAUCA

The binders below were run against T1, UNK ZnF1-3 (assay: nsRBNS (natural sequence RNA bind-n-seq); RBNS binding buffer (assumed for nsRBNS): 25 mM Tris pH 7.5, 150 mM KCl, 3 mM MgCl2, 0.01% Triton X-100, 500 ug/ml BSA, 20 U/ml SUPERase-In, 4 C; UNK is unkempt and MSI1 is Musashi-1; names of the RNAs are library labels; protein concentration not given here; high values mean tight binding).
B1 showed a binding signal of 0.712 enrichment R. Work on B2 yielded a binding signal of 0.328 enrichment R. With B3 the binding signal was 0.68 enrichment R. For B4, the binding signal was 1.82 enrichment R. Work on B5 yielded a binding signal of 0.708 enrichment R. B6 was tested, and the binding signal was 1.43 enrichment R. Work on B7 yielded a binding signal of 1.03 enrichment R. For B8, the binding signal was 0.577 enrichment R. With B9 the binding signal was 0.227 enrichment R. Work on B10 yielded a binding signal of 1.34 enrichment R. Work on B11 yielded a binding signal of 0.633 enrichment R. B12 was tested, and the binding signal was 0.778 enrichment R. B13 gave a binding signal of 0.784 enrichment R. Work on B14 yielded a binding signal of 1.09 enrichment R. For B15, the binding signal was 0.735 enrichment R. In the case of B16, the binding signal is reported as 0.692 enrichment R. Binder B17 has a binding signal of 0.572 enrichment R. B18 showed a binding signal of 0.812 enrichment R. B19 was tested, and the binding signal was 1.22 enrichment R. B20 showed a binding signal of 0.923 enrichment R. B21 gave a binding signal of 1.01 enrichment R. B22 showed a binding signal of 0.544 enrichment R.
